For the test, the system named is NCI-H1944. Description: normalised cell viability (NPI; 0 = phenylarsine oxide control, 1 = DMSO control) (fraction of DMSO control); NCI-H1944 is a non-small cell lung cancer line; higher = more viable cells (less compound toxicity). The conditions noted are these: 6 days.
The mark [1] stands for this setting: glucocorticoid arm: hydrocortisone 2.75 uM co-treatment, compound 1 µM.
Where [2] appears, read: glucocorticoid arm: hydrocortisone 2.75 uM co-treatment, compound 5 µM.
[3] abbreviates: glucocorticoid arm: hydrocortisone 2.75 uM pre-treated 2 days and continued, compound 1 µM.
The mark [4] stands for this setting: glucocorticoid arm: hydrocortisone 2.75 uM pre-treated 2 days and continued, compound 5 µM.
Where [5] appears, read: glucocorticoid arm: vehicle, compound 1 µM.
The mark [6] stands for this setting: glucocorticoid arm: vehicle, compound 5 µM.

Experimental findings from the supplement of paper PMC8285479 are described below.

Structures can show the parent of a compound that is named as a salt. ± gives the standard deviation of the averaged measurements. Over roughly 1,900 compounds, “normalised cell viability (NPI; 0 = phenylarsine oxide control, 1 = DMSO control)” has its median near 1; the lowest 2% begin near 0.039. This is one part of the list.
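Note: CTB read-out in 384-well plates, mean of triplicate wells, normalised per plate against 1 µM phenylarsine oxide and 0.1% DMSO, compounds added 24 h after seeding.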

In the case of `C[C@@H]1O[C@@H](O[C@H]2C[C@@H](O)[C@]3(CO)[C@H]4[C@H](O)C[C@]5(C)[C@@H]([C@@H]6COC(=O)C6)CC[C@]5(O)[C@@H]4CC[C@]3(O)C2)[C@H](O)[C@H](O)[C@H]1O` [Dihydroouabain], the normalised cell viability reads like this: under setting [1], 1.027 ± 0.0058; under setting [2], 0.0138 ± 0.013; under setting [3], 1.01 ± 0.015; under setting [4], 0.143 ± 0.081; under setting [5], 0.98 ± 0.017; under setting [6], 0.00677 ± 0.002.

Regarding `COC(=O)c1cc2c(cn1)[nH]c1ccccc12` [Methyl beta-carboline-3-carboxylate], the normalised cell viability under setting [1] was found to be 1.013 ± 0.0058; the normalised cell viability under setting [2] is 1 ± 0.019; the normalised cell viability under setting [3] came to 1.01 ± 0.018; the normalised cell viability under setting [4] came to 1 ± 0.024; the normalised cell viability under setting [5] is 1.017 ± 0.0058; the normalised cell viability under setting [6] turned out to be 1.02.

In the case of `CCCn1c(C)c(C(=O)c2cccc3ccccc23)c2ccccc21`, the normalised cell viability runs as follows: under setting [1], 1.001 ± 0.0083; under setting [2], 1.03 ± 0.023; under setting [3], 1.007 ± 0.0058; under setting [4], 1.06 ± 0.09; under setting [5], 0.9977 ± 0.004; under setting [6], 1.01 ± 0.023.

Take `O=P1(N(CCCl)CCCl)NCCCO1` (centres undefined) [Cyclophosphamide monohydrate; Cyclophosphamide]: the normalised cell viability was 1.02 ± 0.021 under setting [1]; 1.05 ± 0.01 under setting [2]; 1.017 ± 0.0058 under setting [3]; 1.04 ± 0.01 under setting [4]; 1.01 ± 0.01 under setting [5]; 1.02 under setting [6].

Take `O=P1(N(CCCl)CCCl)NCCCO1` (centres undefined) [Cyclophosphamide monohydrate]: the normalised cell viability by setting is: under setting [1], 0.992 ± 0.015; under setting [2], 0.997 ± 0.025; under setting [3], 1.01 ± 0.011; under setting [4], 1.01; under setting [5], 0.999 ± 0.011; under setting [6], 1.017 ± 0.0058.

As to `CC(=O)OCC1=C(C(=O)[O-])N2C(=O)[C@@H](NC(=O)CCC[C@@H](N)C(=O)[O-])[C@H]2SC1.[Zn+2]` [Cephalosporin C zinc salt], the normalised cell viability is 1.02 ± 0.01 under setting [1]; 1.05 ± 0.03 under setting [2]; 1.03 ± 0.015 under setting [3]; 1.03 ± 0.021 under setting [4]; 1.02 ± 0.016 under setting [5]; 1.023 ± 0.0058 under setting [6].

On to `CN1C(=O)CCS(=O)(=O)C1c1ccc(Cl)cc1` (centres undefined) [Chlormezanone], for which the normalised cell viability by setting is: under setting [1], 1.002 ± 0.0068; under setting [2], 0.995 ± 0.015; under setting [3], 1.003 ± 0.0058; under setting [4], 1.01 ± 0.018; under setting [5], 0.991 ± 0.003; under setting [6], 0.996 ± 0.0035.

For the compound `O=C(O)[C@@H]1CCN1` [L-azetidine-2-carboxylic acid], the normalised cell viability runs as follows: under setting [1], 0.9857 ± 0.0025; under setting [2], 0.975 ± 0.011; under setting [3], 0.97967 ± 0.00058; under setting [4], 0.968 ± 0.0099; under setting [5], 0.973 ± 0.011; under setting [6], 0.9697 ± 0.008.

On to `O=C(O)Cc1cnc[nH]1` [Imidazole-4-acetic acid hydrochloride], for which the normalised cell viability is, setting by setting: under setting [1], 1.02 ± 0.021; under setting [2], 0.995 ± 0.026; under setting [3], 1.02 ± 0.01; under setting [4], 0.991 ± 0.01; under setting [5], 1.033 ± 0.0058; under setting [6], 1.033 ± 0.0058.

Turning to `C[C@H]1OC[C@@H](C[N+](C)(C)C)O1` [(+)-cis-Dioxolane], the normalised cell viability by setting is: under setting [1], 1.017 ± 0.0058; under setting [2], 1.02 ± 0.01; under setting [3], 1 ± 0.018; under setting [4], 1.04 ± 0.081; under setting [5], 1.01 ± 0.01; under setting [6], 1.006 ± 0.0063.

`c1ccc2sc(C3(N4CCCCC4)CCCCC3)cc2c1` [BTCP hydrochloride]: the normalised cell viability by setting is: under setting [1], 1 ± 0.0095; under setting [2], 0.991 ± 0.017; under setting [3], 0.998 ± 0.01; under setting [4], 1.01 ± 0.021; under setting [5], 0.9927 ± 0.0071; under setting [6], 0.997 ± 0.003.

Turning to `C[N+]1(C)C2CCC1CC(OC(=O)c1c[nH]c3ccccc13)C2` (centres undefined) [3-Tropanylindole-3-carboxylate methiodide], the normalised cell viability under setting [1] turned out to be 0.9987 ± 0.0099; the normalised cell viability under setting [2] amounted to 0.994 ± 0.014; the normalised cell viability under setting [3] was 1.01 ± 0.018; the normalised cell viability under setting [4] is 1.01; the normalised cell viability under setting [5] was determined as 1.01; the normalised cell viability under setting [6] is 1.003 ± 0.0064.

For `COc1cc(CC(C)N)c(OC)cc1I` (racemic) [(±)-DOI hydrochloride], the normalised cell viability by setting is: under setting [1], 1.01 ± 0.01; under setting [2], 0.983 ± 0.023; under setting [3], 0.998 ± 0.013; under setting [4], 1.02 ± 0.01; under setting [5], 0.998 ± 0.0035; under setting [6], 0.994 ± 0.004.

Turning to `N#C/C(=C\c1ccc(O)c(O)c1)C(N)=S` [Tyrphostin 47], the normalised cell viability is 0.9827 ± 0.0031 under setting [1]; 0.995 ± 0.0056 under setting [2]; 1 ± 0.027 under setting [3]; 0.9963 ± 0.0063 under setting [4]; 0.98 ± 0.0044 under setting [5]; 0.9767 ± 0.0074 under setting [6].

In the case of `CCCC[N+]1(C)[C@@H]2C[C@@H](OC(=O)[C@H](CO)c3ccccc3)C[C@H]1[C@@H]1O[C@@H]12` (single isomer, unassigned; (-)) [(-)-Scopolamine,n-Butyl-, bromide], the normalised cell viability runs as follows: under setting [1], 1.017 ± 0.0058; under setting [2], 1.02 ± 0.026; under setting [3], 0.88 ± 0.21; under setting [4], 1.03 ± 0.011; under setting [5], 1.01; under setting [6], 1.007 ± 0.0058.

`C1CN1c1nc(N2CC2)nc(N2CC2)n1` [Triethylenemelamine]: the normalised cell viability is, setting by setting: under setting [1], 1.023 ± 0.0058; under setting [2], 0.775 ± 0.022; under setting [3], 1.017 ± 0.0058; under setting [4], 0.989 ± 0.015; under setting [5], 0.993 ± 0.0082; under setting [6], 0.273 ± 0.028.

Turning to `COc1ccc(OC)c(C(O)C(C)N)c1` (centres undefined) [Methoxamine hydrochloride], the normalised cell viability by setting is: under setting [1], 1.013 ± 0.0058; under setting [2], 1.01 ± 0.024; under setting [3], 1.02 ± 0.011; under setting [4], 0.997 ± 0.022; under setting [5], 1.023 ± 0.0058; under setting [6], 1.02 ± 0.023.

In the case of `CCCCC/C=C\C/C=C\C/C=C\C/C=C\CCCC(=O)NCC(=O)O` [N-arachidonylglycine], the normalised cell viability came to 0.9867 ± 0.0049 under setting [1]; 1.01 ± 0.025 under setting [2]; 1.003 ± 0.0064 under setting [3]; 0.9935 ± 0.005 under setting [4]; 0.994 ± 0.017 under setting [5]; 1 ± 0.014 under setting [6].

For the compound `C/C(O)=C(\C#N)C(=O)Nc1cc(Br)ccc1Br`, the normalised cell viability worked out at 0.976 ± 0.018 under setting [1]; 0.928 ± 0.026 under setting [2]; 0.9763 ± 0.0055 under setting [3]; 1 ± 0.085 under setting [4]; 0.993 ± 0.0078 under setting [5]; 0.997 ± 0.013 under setting [6].

As to `Cc1ccccc1-n1c(Cn2ncc3c(N)ncnc32)nc2cccc(C)c2c1=O`, the normalised cell viability is, setting by setting: under setting [1], 0.9987 ± 0.0099; under setting [2], 0.995 ± 0.026; under setting [3], 1 ± 0.025; under setting [4], 1.02 ± 0.015; under setting [5], 0.99267 ± 0.00058; under setting [6], 0.982 ± 0.012.

Take `C[C@@]12C(=O)OC(=O)[C@]1(C)[C@H]1CC[C@@H]2O1` [Cantharidin]: the normalised cell viability worked out at 0.9967 ± 0.0035 under setting [1]; 0.00641 ± 0.0033 under setting [2]; 1.05 ± 0.021 under setting [3]; 0.12 ± 0.057 under setting [4]; 0.9873 ± 0.0032 under setting [5]; 0.00459 ± 0.0027 under setting [6].

On to `CCCC(C)(COC(N)=O)COC(=O)NC(C)C` (centres undefined) [Carisoprodol], for which the normalised cell viability under setting [1] was 0.994 ± 0.019; the normalised cell viability under setting [2] worked out at 0.997 ± 0.012; the normalised cell viability under setting [3] was 1.01 ± 0.014; the normalised cell viability under setting [4] worked out at 0.991 ± 0.0014; the normalised cell viability under setting [5] amounted to 1.01; the normalised cell viability under setting [6] was 1.013 ± 0.0058.

`COc1ccc2c3c1O[C@H]1C(=O)CC[C@@]4(O)C(C2)N(CC2CC2)CCC314` (some centres undefined) [3-Methoxynaltrexone hydrochloride]: the normalised cell viability under setting [1] was found to be 0.9917 ± 0.0068; the normalised cell viability under setting [2] is 0.99 ± 0.018; the normalised cell viability under setting [3] came out at 0.985 ± 0.013; the normalised cell viability under setting [4] is 1.02 ± 0.07; the normalised cell viability under setting [5] came out at 0.9977 ± 0.0025; the normalised cell viability under setting [6] was 0.998 ± 0.013.

For `Cc1sc2c(c1C)C(c1ccc(Cl)cc1)=NC(CC(N)=O)c1nnc(C)n1-2` (centres undefined), the normalised cell viability runs as follows: under setting [1], 0.9993 ± 0.0092; under setting [2], 0.996 ± 0.023; under setting [3], 0.9503 ± 0.0067; under setting [4], 0.964 ± 0.028; under setting [5], 0.958 ± 0.037; under setting [6], 0.826 ± 0.015.
